Publication PMC4336329 (PLoS ONE, 2015)
The whole screen tested about 310,000 compounds, of which about 2,200 (0.71%) showed an effect of 50% or more. The effect is printed as a negative number. Some of the results follow.

molecular target: human ether-à-go-go-related gene (hERG) potassium channel (human, UniProt Q12809); assay: primary screen, population patch clamp on CHO cells stably expressing hERG
Sequence (Q12809 whole entry, looked up): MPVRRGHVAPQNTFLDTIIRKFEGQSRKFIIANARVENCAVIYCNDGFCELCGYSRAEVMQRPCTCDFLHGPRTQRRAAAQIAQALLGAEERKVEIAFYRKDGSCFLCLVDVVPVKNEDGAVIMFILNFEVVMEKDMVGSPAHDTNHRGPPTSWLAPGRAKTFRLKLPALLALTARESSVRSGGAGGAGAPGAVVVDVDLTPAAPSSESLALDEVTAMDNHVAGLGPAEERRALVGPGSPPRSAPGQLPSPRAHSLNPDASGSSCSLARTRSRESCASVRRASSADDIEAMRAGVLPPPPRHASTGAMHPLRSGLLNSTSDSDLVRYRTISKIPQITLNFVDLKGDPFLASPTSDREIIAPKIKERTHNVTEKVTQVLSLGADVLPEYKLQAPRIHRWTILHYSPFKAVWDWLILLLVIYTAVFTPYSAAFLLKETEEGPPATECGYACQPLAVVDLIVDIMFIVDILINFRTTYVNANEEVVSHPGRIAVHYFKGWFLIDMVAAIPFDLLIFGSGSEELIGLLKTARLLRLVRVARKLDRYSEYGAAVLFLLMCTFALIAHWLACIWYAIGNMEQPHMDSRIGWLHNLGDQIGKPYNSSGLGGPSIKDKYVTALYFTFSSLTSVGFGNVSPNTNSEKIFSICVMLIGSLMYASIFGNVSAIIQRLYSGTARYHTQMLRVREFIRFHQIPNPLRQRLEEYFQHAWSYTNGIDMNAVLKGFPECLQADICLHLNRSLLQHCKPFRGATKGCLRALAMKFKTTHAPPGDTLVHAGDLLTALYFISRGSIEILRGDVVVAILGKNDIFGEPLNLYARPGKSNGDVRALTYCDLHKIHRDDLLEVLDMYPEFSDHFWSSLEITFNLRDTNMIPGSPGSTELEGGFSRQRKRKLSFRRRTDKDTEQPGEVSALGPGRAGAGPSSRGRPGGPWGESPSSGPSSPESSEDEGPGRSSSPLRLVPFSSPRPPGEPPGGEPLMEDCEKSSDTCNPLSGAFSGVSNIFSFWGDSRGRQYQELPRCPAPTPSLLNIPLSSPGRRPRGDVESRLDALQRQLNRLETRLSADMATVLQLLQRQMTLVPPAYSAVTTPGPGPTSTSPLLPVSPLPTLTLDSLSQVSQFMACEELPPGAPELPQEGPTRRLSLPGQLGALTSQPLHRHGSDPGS

Structure (SMILES) | hERG current change (%, negative = inhibition) at 1uM
Cc1cccc(OCCC(=O)Nc2ccc(S(=O)(=O)N3CCCC3)cc2)c1 | 14%
CCOC(=O)c1ccc(NC(=O)N(CC)CC)cc1 | 5.73%
CC(=Nc1ccc(O)cc1)c1sc2ccccc2c1O | 6.62%
O=C(N/N=C/c1ccccc1)c1cc[n+]([O-])cc1 | 21.2%
COc1ccc(CNC(=O)c2ccccc2NS(C)(=O)=O)cc1 | 8.73%
CCN(CC)CCOCCOC(=O)C1(c2ccccc2)CCCC1.O=C(O)CC(O)(CC(=O)O)C(=O)O | -0.103%
COC(=O)C1=C(C)NC(C)=C(C(=O)OCCN(C)Cc2ccccc2)C1c1cccc([N+](=O)[O-])c1.Cl (stereo not shown) | 13.8%
C#CCN(C)C(C)Cc1ccccc1.Cl (stereo not shown) | 11%
Cc1ccc2c(N)c(C#N)sc2n1 | 14%
COc1ccc(OC)c(CNc2c(C=O)c(=O)[nH]c3ccccc23)c1 | 21.2%
Cc1nn(C)c(C)c1/C=N/NC(=O)CCn1cc([N+](=O)[O-])cn1 | -1.06%
NC(=O)c1cn(C2CCCCC2)c2ccccc2c1=O | -10.9%
CC(C)NC(=S)N1CCN(Cc2ccc3c(c2)OCO3)CC1 | 9.9%
CC(C)CC1NC(=O)N(CC(=O)Nc2cccc(Br)c2)C1=O (stereo not shown) | 3.12%
CN(Cc1ccccc1)C(=O)c1ccc(NC(=O)Cc2cccc(NC(=O)C3CCCN(C(=O)CCc4ccccc4)C3)c2)cc1 (stereo not shown) | 11.5%
CCCCNc1ncnc2c1cnn2Cc1ccc(Cl)cc1 | 5.02%
CN(C)/C=C(\C#N)C(=O)c1cccnc1Oc1ccc(F)cc1F | -1.06%
COc1ccc(OCc2csc(N)n2)cc1 | 29.9%
Cc1ccc(-c2csc3ncn(CC(=O)NCC(c4ccco4)N4CCCC4)c(=O)c23)cc1 (stereo not shown) | -5.43%
CC(Oc1ccc(F)cc1F)C(=O)/C=C/N(C)C (stereo not shown) | 2.17%
COc1ccc(-c2nnn(CC(=O)N3CCN(c4ccc(F)cc4)CC3)n2)cc1 | 10.6%
CC(=O)N(C1=C(Cl)C(=O)c2ccccc2C1=O)C1CCCCC1 | 10.2%
CCSc1nnc(-c2cccc(S(=O)(=O)N(CC)CC)c2)n1Cc1ccccc1 | -19.5%
CCCCN(C(=O)CSCc1c(C)noc1C)c1c(N)n(CCC)c(=O)[nH]c1=O | 12.9%
COC(=O)C1=C(C)NC(C)=C(C(=O)OC)C1c1ccc(-c2cc(Cl)ccc2Cl)o1 | 7.44%
